About 520 (0.27%) of roughly 190,000 compounds were called active. Inconclusive results, whose numbers are uncertain, are shown with a selection of clear calls.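 The calls were made as follows: active = GTP binding activity at least 20 points away from the 100% control level, either lower or higher; inconclusive = compound flagged as likely green fluorescent, judged across all proteins; inactive = the rest.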
These compounds were tested against Ras-related C3 botulinum toxin substrate 1 (Homo sapiens) (UniProt P63000) (assay: wildtype Rac1 GTP binding modulators, primary screen, biochemical, GST-Rac1 beads, flow cytometry, multiplex (AID 757)). Settings: fluorescent GTP binding, at 10 µM, actives lie on both sides, 0 = cold GTP competed, 100 = untreated.
With CC(C)CCN1CCN(C/C=C/c2ccco2)CC1CCO (stereo not drawn) the GTP binding activity (% of control) was inactive: 94%.
In the case of O=C(/C=C\c1ccccc1OC(=O)c1ccccc1F)c1cc2ccccc2o1, the GTP binding activity (% of control) is reported as inactive: 105%.
With COc1ccc(C)cc1NS(=O)(=O)c1ccc(NC(=O)CN(c2cc([N+](=O)[O-])ccc2C)S(C)(=O)=O)cc1 the GTP binding activity (% of control) was inconclusive: 103%.
For CN(/N=C/c1ccc(Br)o1)C1=NS(=O)(=O)c2ccccc21, the GTP binding activity (% of control) was active: 77%.
In the case of O=C(O)CCNS(=O)(=O)c1ccc2c(c1)CCCC2, the GTP binding activity (% of control) is reported as inconclusive: 96%.
In the case of O=C(O)CSc1nnc(Nc2ccccc2)n1-c1ccccc1, the GTP binding activity (% of control) is reported as inconclusive: 91%.
For Cc1ccc(-n2c(=O)cc(N3CCc4ccccc4C3)[nH]c2=O)cc1, the GTP binding activity (% of control) was active: 126% [activator].
For COc1ccc(CN2CCCC(CNC(=O)c3ccc(F)cc3)C2)c(C)c1C (stereo not drawn), the GTP binding activity (% of control) was inactive: 100%.
CC(C)CCNC(=O)Cc1ccc(Nc2nc(=S)[nH]c3ccccc23)cc1 was tested, and the GTP binding activity (% of control) was active: 73%.
For CCOc1ccc(NC(=O)NC(=O)N(C(C)C)S(C)(=O)=O)cc1, the GTP binding activity (% of control) was inactive: 100%.
For C=CCNc1oc(/C=C/c2ccccc2)nc1C#N, the GTP binding activity (% of control) was inconclusive: 107%.
With COC(=O)c1cc(NC(=O)c2cccc(Cl)c2)c(=O)oc1/C=C/Nc1cc(C)cc(C)c1 the GTP binding activity (% of control) was inconclusive: 185%.
With Cc1cc(=O)[nH]c(N=N/C(=N/Nc2ccc(O)cc2)c2ccccc2)n1 the GTP binding activity (% of control) was inconclusive: 98%.
With COC(=O)CN1C(=S)N(c2ccc(OC)cc2)C(=O)/C1=C/c1ccc(OC)cc1 the GTP binding activity (% of control) was inconclusive: 98%.
With S=c1[nH]nc(/C=C/c2ccccc2)o1 the GTP binding activity (% of control) was inactive: 93%.
O=C(Nc1ccccc1N1CCOCC1)C1CCN(S(=O)(=O)c2ccccc2F)CC1 was tested, and the GTP binding activity (% of control) was inactive: 105%.
In the case of COC(=O)c1ccc(NC(=S)NCCCn2ccnc2)cc1, the GTP binding activity (% of control) is reported as inactive: 102%.
For COc1cc(C(=O)OCC(=O)NCc2ccccc2)cc(NC(=O)c2ccco2)c1OC, the GTP binding activity (% of control) was inconclusive: 91%.
For CCOC(=O)c1sc2nc3c(SCC(=O)O)cc(C(=O)c4cc(F)ccc4O)cn3c(=O)c2c1C, the GTP binding activity (% of control) was inconclusive: 86%.
For O=C(NCc1ccccc1Cl)c1ccccc1Oc1ccccc1, the GTP binding activity (% of control) was inactive: 103%.
In the case of CCCOc1ccc(S(=O)(=O)N2CCOCC2)cc1[N+](=O)[O-], the GTP binding activity (% of control) is reported as inactive: 100%.
With COCCn1c(=S)[nH]c2cc(C(=O)N3CCc4ccccc4C3)ccc2c1=O the GTP binding activity (% of control) was active: 124% [activator].
With COc1cc(N=c2oc3c(C)ncc(CO)c3cc2C(N)=O)cc(OC)c1OC the GTP binding activity (% of control) was active: 64%.
In the case of Cc1cc([N+](=O)[O-])c2c(c1C)C1C=CCC1C(c1ccccn1)N2 (stereo not drawn), the GTP binding activity (% of control) is reported as inconclusive: 91%.
With COc1cc(/C=N\NC(=O)c2ccc(Cn3nc([N+](=O)[O-])c(Cl)c3C)o2)ccc1O the GTP binding activity (% of control) was inconclusive: 77%.
With Cc1sc2nc(-c3ccccc3)oc(=O)c2c1C the GTP binding activity (% of control) was inactive: 100%.
Cc1nc(C(=O)N(C)C)nn1-c1ccc(Cl)cc1Cl was tested, and the GTP binding activity (% of control) was inactive: 110%.
Cc1ccccc1NS(=O)(=O)c1ccc(C)c(NS(C)(=O)=O)c1C was tested, and the GTP binding activity (% of control) was inactive: 101%.
In the case of CCN1/C(=C/c2ccc3cc(C)ccc3[n+]2C)Sc2ccc3sccc3c21, the GTP binding activity (% of control) is reported as inconclusive: 71%.
CN(C)Cc1nc2ccccc2c(=O)n1CC(=O)Nc1cccc(S(=O)(=O)N2CCOCC2)c1 was tested, and the GTP binding activity (% of control) was inconclusive: 102%.
With Cc1ccccc1C(=O)c1cccn1CC(=O)NC(C)c1ccc2c(c1)OCCO2 (stereo not drawn) the GTP binding activity (% of control) was inactive: 97%.
For COc1ccc(C(CC(=O)O)n2cnnn2)cc1 (stereo not drawn), the GTP binding activity (% of control) was inconclusive: 100%.
For O=C(Nc1ccc(Br)cc1F)C1CCCO1 (stereo not drawn), the GTP binding activity (% of control) was inconclusive: 101%.
With COc1ccc(NC(=O)/C(Cl)=C(/Cl)S(=O)Cc2ccccc2Cl)cn1 (stereo not drawn) the GTP binding activity (% of control) was inactive: 102%.
CCc1cc2c(N3CCN(c4nnc(CC)s4)CC3)ncnc2s1 was tested, and the GTP binding activity (% of control) was inconclusive: 97%.
With CC(=O)OCC1OC(n2ccc(=O)[nH]c2=O)C(O)C1O (stereo not drawn) the GTP binding activity (% of control) was inconclusive: 111%.
With COc1ccc(/C=C2\SC(N3CCc4ccccc4C3)=NC2=O)cc1OC the GTP binding activity (% of control) was inactive: 99%.
In the case of COC1=CCC2([N+](=O)[O-])CN(CCO)CC1([N+](=O)[O-])C2 (stereo not drawn), the GTP binding activity (% of control) is reported as inactive: 102%.
In the case of O=S(=O)(NCc1ccco1)N1CCCCCC1, the GTP binding activity (% of control) is reported as inconclusive: 96%.
With COc1ccc(-c2noc(C(=O)NCc3ccc(F)cc3)n2)cc1OC the GTP binding activity (% of control) was inactive: 96%.
In the case of COc1cccc(C(=O)N2CCSC2=S)c1, the GTP binding activity (% of control) is reported as inconclusive: 99%.
CNCC(=O)Nc1c(C)n[nH]c1C was tested, and the GTP binding activity (% of control) was inconclusive: 106%.
CC1CN(C(=O)c2cccc(S(=O)(=O)Nc3cc(Cl)ccc3Cl)c2)CC(C)O1 (stereo not drawn) was tested, and the GTP binding activity (% of control) was active: 72%.
With O=S(=O)(CC(CN1CCOCC1)N1CCOCC1)c1ccccc1 (stereo not drawn) the GTP binding activity (% of control) was active: 56%.
For CCOC(=O)CC(=O)CSc1ccc2nnc(-c3ccc(C)cc3)n2n1, the GTP binding activity (% of control) was inconclusive: 106%.
With C=CCN(c1ccccc1)S(=O)(=O)c1ccc2c(c1)oc(=O)n2C the GTP binding activity (% of control) was inactive: 102%.
In the case of Cc1nc2ccccc2n1CC(O)Cn1c2ccccc2c2ccccc21 (stereo not drawn), the GTP binding activity (% of control) is reported as inconclusive: 105%.
For CCOC(=O)c1cc(-c2cccc([N+](=O)[O-])c2)n[nH]1, the GTP binding activity (% of control) was inconclusive: 100%.
In the case of COc1c(C)cc(Br)cc1C(=O)Nc1cccc(NC(=O)c2ccco2)c1, the GTP binding activity (% of control) is reported as inconclusive: 101%.
For CCOc1cc(/C=C2/SC(=S)NC2=O)ccc1OC(=O)c1ccco1, the GTP binding activity (% of control) was inconclusive: 87%.
CCC(=O)Nc1ccc(C(=O)N/N=C/c2cc(Br)c(OC)cc2OC)cc1 was tested, and the GTP binding activity (% of control) was inconclusive: 97%.
For Cn1c(C(=O)NCCCN2CCN(c3cccc(Cl)c3)CC2)cc2c(=O)n(C)c3ccccc3c21, the GTP binding activity (% of control) was inconclusive: 86%.
Cc1ccc(S(=O)(=O)NCc2ccc(C(=O)NCCCN3CCC(Cc4ccccc4)CC3)cc2)cc1 was tested, and the GTP binding activity (% of control) was inactive: 97%.
For COCCn1c(SCC(=O)Nc2ccc(C)cc2C)nc2c(oc3ccccc32)c1=O, the GTP binding activity (% of control) was inconclusive: 106%.
In the case of Cc1cc(C)c2nc(SCC(=O)NCC3CCCO3)c(C#N)cc2c1 (stereo not drawn), the GTP binding activity (% of control) is reported as inactive: 92%.
O=[N+]([O-])c1ccc(N2CCN(S(=O)(=O)c3ccccc3)CC2)cc1NCC1CCCO1 (stereo not drawn) was tested, and the GTP binding activity (% of control) was inconclusive: 104%.
In the case of O=c1c2nccnc2[nH]c(=S)n1Cc1ccccc1Cl, the GTP binding activity (% of control) is reported as inconclusive: 95%.
With CCCCNS(=O)(=O)c1ccc(NC(=O)Cc2ccc(OC)cc2)cc1 the GTP binding activity (% of control) was inactive: 98%.
